Measurements as given in PubChem BioAssay AID1508624 (National Center for Advancing Translational Sciences (NCATS), 2021).
In all, about 48,000 compounds went through this assay and about 120 (0.25%) were called active. Roughly 4% stayed inconclusive and do not appear here. Calls follow the shape of the dose curve; as a rule, active = well fitted activation curve with a large enough effect; inconclusive = small, poorly fitted or top-dose-only effect, or another doubt; inactive = no such curve, though single readings can be large or run the other way. The list shows a part of the results.

experiment: Primary qHTS for Identification of Small Molecule Activators of Huntingtin-Antisense Promoter Activity; conditions: HEK293 HTT-AS promoter firefly luciferase reporter (activity 0% = vehicle and -100% = no light), 24 h; series mostly up to 57.5 µM; activity change, positive = activation: at the top concentration; also: nearly all actives have a fitted effect of over 55% in size
Method in brief: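 Firefly luciferase readout (Dual-Glo, 10 min RT) after 24 h, 37 °C compound exposure (final up to 57.5 uM) of HEK293 reporter cells cultured 24 h beforehand; PTC124 at 50 uM final as control inhibitor; activity scaled vehicle 0%, zero RLU -100%.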

Activity change, positive = activation, inactive:
COc1ccc2nc(N(Cc3cccnc3)C(=O)C3CCCCC3)sc2c1 -3.31%
CC1(C)C(=O)N(CC(=O)Nc2ccc(Br)cc2F)c2ccccc21 -17.2%
Cc1nc2ccc(S(=O)(=O)N(C)CC(=O)Nc3cccc(C(F)(F)F)c3)cc2s1 -28.1%
CCOC(=O)c1cc(S(=O)(=O)N2CCN(c3ccccc3F)CC2)[nH]n1 -17.7%
CC(=O)c1cc(-c2ccccc2)n(CCC(=O)Nc2ccc(C)cc2C)c1C -25.2%
COc1ccc(N2CC(NC(=O)c3cc4ccccc4o3)CC2=O)cc1 (centres undefined) -11%
Cc1cc(C(=O)NCc2ccc(Cl)cc2)c2c(C)nn(-c3ccccc3)c2n1 17.4%
COc1ccccc1CNC(=O)CCC1N=C2c3ccccc3N=C(SCc3ccc(C)cc3)N2C1=O (centres undefined) 12.6%
COC(=O)c1c(NC(=O)Nc2ccc(Cl)cc2)sc(C)c1C -30.7%
Cc1ccc2c(c1)N(C(=O)Nc1cccc(C)c1C)CCO2 -26.3%
CS(=O)(=O)N1CCc2cc(C(=O)N3CCN(c4ccccc4)CC3)ccc21 10.2%
CCCc1nnc(NC(=O)c2cc(=O)c3cc(Cl)ccc3o2)s1 -3.18%
COc1ccc(CCC(=O)NCCc2csc(-c3ccc(C(F)(F)F)cc3)n2)cc1 -23.4%
Cc1ccc2c(c1)c(N1CCCC1=O)c(C(=O)Nc1ccc(F)cc1F)n2C -22.6%
Cc1cccc(N(C)c2ccc3cc(S(=O)(=O)N4CCCC4)ccc3n2)c1 -13.5%
CCC(=O)N1CCc2cc(S(=O)(=O)NC(Cc3ccccc3)C(=O)Nc3cccc(OC)c3)ccc21 (centres undefined) 5.26%
Cc1ccc(-c2nnc3c4ccccc4c(C)nn23)cc1NC(=O)c1ccccc1Cl -4.87%
COc1cccc(N2CCN(c3ncnc4onc(-c5ccc(F)cc5)c34)CC2)c1 -11.3%
CCOC(=O)c1cc(S(=O)(=O)N2CCN(c3ccc(C)cc3C)CC2)[nH]n1 -14.9%
Cc1ccc(C)c(NC(=O)CSC2=Nc3ccccc3N=C(c3ccc(F)cc3)C2)c1 -15.7%
O=C(CCCCCn1c(=O)[nH]c2ccccc2c1=O)NCc1ccccc1 5.27%
O=C(C1CCCN(S(=O)(=O)c2cccc3nsnc23)C1)N1CCN(c2ccccc2Cl)CC1 (centres undefined) -32.2%
CN(C)c1ccc(NC(=O)Cn2cc(S(=O)(=O)Cc3cccc(Cl)c3)c3ccccc32)cc1 -28.9%
Cc1nc2scc(C)n2c(=O)c1S(=O)(=O)N1CCN(c2cccc(C(F)(F)F)c2)CC1 -32.6%
O=C(CSc1nc(-c2cccs2)nc2cc(=O)[nH]n12)Nc1ccccc1F -17.7%
CCCOc1ccc(C(=O)Nc2ccc(Cl)c(-c3nc4ncccc4o3)c2)cc1 3.26%
CCOc1ccc(CCNC(=O)CSc2cc(=O)n(C)c3cc(Cl)ccc23)cc1OCC -22.1%
Cc1c(-c2nsc(NC(=O)c3cccc(Cl)c3)n2)nnn1-c1ccccc1C(F)(F)F -85.6%
CCOc1ccc(CCNC(=O)CCc2c(C)nc3cc(-c4ccccc4OC)nn3c2C)cc1 -81.2%
CSc1ccc(CCNC(=O)CN2C(=O)c3cccnc3Oc3ccc(Cl)cc32)cc1 -16.6%
COc1cc(C(=O)N2CCc3c([nH]c4ccccc34)C2c2ccc(C)cc2)cc(OC)c1OC (centres undefined) -40.2%
Nc1c(-c2nc(-c3ccc4c(c3)OCO4)cs2)c2ccccn2c1C(=O)c1ccccc1 -1.49%
CCCCn1c(NCc2cc(Cl)ccc2O)nc2ccccc21 -36.7%
COc1ccc(CNCCC(c2ccccc2)c2ccc3c(c2)OCO3)cc1 (centres undefined) -22.8%
CCCC1=Nc2cc(C(=O)NCCc3ccccc3)ccc2Sc2ccc(C)cc21 -42.6%
COc1ccccc1NC(=O)NCc1cccn1Cc1ccccc1 -7.96%
Cc1cc(Br)ccc1NC(=O)c1ccc(NS(=O)(=O)c2c(C)noc2C)cc1 -10.3%
COc1ccc(NC(=O)Cn2cnc3ccc(S(=O)(=O)N4CCC(C)CC4)cc3c2=O)cc1OC -28.8%
COc1cccc(-c2nc(SCC(=O)NC3CCCC3)c(-c3ccccc3)[nH]2)c1 -21.9%
CCOc1ccc(-c2nc(SCC(=O)NC3CCCC3)c(-c3ccccc3)[nH]2)cc1OC -10.5%
COc1ccc(-c2cnn3c(C)cc(C)nc23)cc1OC 4.1%
Cc1c(NC(=O)c2cccc3c(Cl)cccc23)cccc1-c1nc2ccccc2o1 -16%
O=C(CCS(=O)(=O)c1cc(Br)cc2c1N(C(=O)C1CC1)CC2)NCc1ccccc1Cl -9.49%
COC(=O)c1sccc1S(=O)(=O)N(CC(=O)Nc1c(C)cccc1C)c1ccc(C)c(C)c1 -24.7%
COc1ccc2c(c1)c(=O)c(S(=O)(=O)c1ccc(C)cc1)cn2Cc1ccccc1C -38.5%
CCOC(=O)N1CCc2c(sc3c2c(=O)n(Cc2ccccc2)c(=O)n3CC(=O)Nc2ccc(C)c(C)c2)C1 -15.3%
CCC(C(=O)Nc1cc(F)ccc1F)n1nc(-c2cc(C)ccc2C)ccc1=O (centres undefined) -32.1%
Cc1ccc(NC(=O)CCC(=O)N2CCSc3ccccc32)cc1Cl -33%
Cc1c(Cl)cccc1NC(=O)Nc1nnc(N(C)Cc2ccccc2)s1 -22.3%
Cc1c(N(C)C)c(=O)n(-c2ccccc2)n1C 1.38%
Oc1c(Cl)cc(Cl)c(Cl)c1Cc1c(O)c(Cl)cc(Cl)c1Cl -93.1%
CC1=C(C(=O)NCc2ccccc2C)C2(CCCCC2)OC1=O -1.83%
Cc1c(NC(=O)C(C)(C)Oc2ccc(Cl)cc2)cccc1-c1nc2ncccc2o1 -48.3%
CC(=O)c1ccc(NC(=O)Cn2cc(S(=O)(=O)Cc3ccccc3Cl)c3ccccc32)cc1 -24.9%
CCC(C(=O)Nc1ccccc1OC)n1nc(C)c2sc3ccccc3c2c1=O (centres undefined) -27.7%
Cc1ccc(C)c(OCC(=O)Nc2ccc(S(=O)(=O)Nc3onc(C)c3C)cc2)c1C -11.3%
Cc1ccc(NC(=O)c2c(C)oc3nc(C)nc(N4CCCC4)c23)c(C)c1 -12.6%
CCN(CCCNC(=O)CSc1cc(=O)n(CC)c2ccccc12)c1cccc(C)c1 -25.6%
CC(Sc1cn(CCNC(=O)c2ccccc2F)c2ccccc12)c1ccccc1 (centres undefined) -33.8%
COc1ccc(NC(=O)c2c(NCc3sccc3C)sc3c2CCCCC3)c(OC)c1 -13%
CCOc1ccc(CCNC(=O)c2ccc(CS(=O)Cc3cccc(Cl)c3)o2)cc1 (centres undefined) -18.8%
COc1ccc(C)cc1NC(=O)Cn1c(=O)ccc2cc(S(=O)(=O)N3CCC(C)CC3)ccc21 -37.3%
COC(=O)c1ccc(NC(=O)CSc2ncc3c(n2)-c2cc(Cl)ccc2N(Cc2ccccc2)S3(=O)=O)cc1 -12.3%
Cc1ccc2c(=O)c(C(=O)c3ccc(Cl)cc3)cn(CC(=O)NC3CCCCC3)c2n1 -3.86%
O=S(=O)(c1ccc(F)cc1)N(Cc1nc(-c2ccc(Cl)cc2)no1)C1CCCCC1 -26.7%
O=C(Nc1c(C(=O)O)oc2ccccc12)c1ccc(C(F)(F)F)cc1 25.6%
O=C(CSc1cn(CC(=O)N2CCOCC2)c2ccccc12)Nc1ccccc1 0.663%
O=C(COCc1cc(-c2ccc3c(c2)OCO3)on1)NCc1ccccc1Cl 11.8%
NC(=O)c1ccc2[nH]ccc2c1 -13.6%
COc1ccccc1OCC(=O)NCc1nc(-c2ccc(Cl)cc2)no1 -21.4%
CCOc1ccc(C(=O)Nc2ccc(S(=O)(=O)Nc3nc(C)cc(C)n3)cc2)cc1OC -9.23%
CC1=C(c2ccc(C)c(C)c2)S(=O)(=O)N(Cc2ccc(C(=O)NC(C)c3ccccc3)cc2)C1=O (centres undefined) -19.1%
Cc1ccccc1Cc1c(C)nc2nc(SCC(=O)NCCc3ccc(Cl)cc3)nn2c1C 19.6%
O=C(COc1ccccc1)Nc1ccccc1OCc1cc(=O)n2ccccc2n1 2.06%
Cn1c(=O)c2c(nc(Oc3ccccc3)n2Cc2c(Cl)cccc2Cl)n(C)c1=O -5.22%
COc1ccc(N(CC(=O)Nc2cc(C)ccc2C)S(=O)(=O)c2ccc(OC)c(OC)c2)cc1 -35.4%
COCCCNC(=O)CSc1nc2cc3c(cc2c(=O)n1CCCC(=O)NCc1ccc(OC)cc1)OCO3 -12.7%
COc1cc(NC(=O)CSc2nc3nc(C)c(Cc4ccc(C)cc4)c(C)n3n2)cc(OC)c1OC -31.6%
O=C(Nc1ccc(F)cc1F)c1ccc2c(O)c(S(=O)(=O)c3ccc(Cl)cc3)c(=O)[nH]c2c1 -12.6%
CCOc1ccc(NC(=O)CN2C(=O)COc3ccc(S(=O)(=O)NC4CCCC4)cc32)cc1 -20.2%
CCc1ccc(C2c3c(oc4ccc(F)cc4c3=O)C(=O)N2c2nc(C)c(C(=O)OC)s2)cc1 (centres undefined) -7.41%
Cc1c2cnn(CC(=O)NCCc3ccccc3)c(=O)c2c(C)n1Cc1ccccc1 -5.75%
COc1cc(NC(=O)CSc2ncc(S(=O)(=O)c3ccc(Br)cc3)c(=O)[nH]2)cc(OC)c1 -6.43%
Cc1cccc(NC(=O)C(=O)NCC(c2ccc3c(c2)OCO3)N2CCN(C)CC2)c1C (centres undefined) -6.53%
COc1ccc(OC)c(NC(=O)c2cccn2-c2nnc(N3CCCCC3)s2)c1 2.13%
COc1ccc(CNC(=O)c2cc3c(=O)oc4ccc(C)cc4c3s2)c(OC)c1 -8.44%
Fc1ccc(-c2noc3ncnc(NC4CCCCC4)c23)cc1 -31.7%
CC[C@]1(O)C[C@H]2CN(CCc3c([nH]c4ccccc34)[C@@](C(=O)OC)(c3cc4c(cc3OC)N(C=O)[C@H]3[C@@](O)(C(=O)OC)[C@H](OC(C)=O)[C@]5(CC)C=CCN6CC[C@]43[C@@H]65)C2)C1
CCN(CC)S(=O)(=O)c1ccc2oc(C(=O)N(C)Cc3ccccc3)c(C)c2c1 -15.8%
CCCCOc1cccc(C(=O)N(Cc2sccc2C)C2CCS(=O)(=O)C2)c1 (centres undefined) -37.4%
Cc1cc(Nc2cccc(Cl)c2)nc2ccc(NC(=O)Cc3cccc(C(F)(F)F)c3)cc12 -52.2%
COc1ccc(Cn2c(=O)c3oc4ccccc4c3n(Cc3ccc(F)cc3)c2=O)cc1 -3.02%
Cc1cccc(N2CCN(C(=O)CCCCn3c(=O)[nH]c4ccsc4c3=O)CC2)c1C -39.5%
COc1cc(C2CC(=O)Nc3cc4c(cc32)OCCO4)cc(Br)c1OC (centres undefined) -45.2%
